Several values for one entry are separate records, joined by “and”; a condition that tells them apart may be missing. Identical values can stand only once. The inconclusive results got no clear call from the source; some entries with a clear call stand among them for comparison. No potency is given beside an inconclusive call; the fits are too rough. Activity calls are given as the source filed them. Calls come from the whole dose curve; as a rule, active = well fitted cell-killing curve with a large enough effect; inconclusive = small, poorly fitted or top-dose-only effect, or effect the other way; inactive = no such curve, though single readings can be large or run the other way.
Test: Viability qHTS for spleen associated tyrosine kinase inhibitor (SYKi) drug resistant MV4-11 cells (AID 1963824); note: nearly all actives have a fitted effect of over 35% in size
Conditions: SYKi-resistant MV4-11 viability, CellTiter-Glo, 72 h; series mostly up to 45 µM
Summary of the method: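 SYK inhibitor-resistant MV4-11 AML cells, 500 per well, added to predispensed compounds and incubated 72 hr at 37 C, 5% CO2. Viability measured by CellTiter-Glo luminescence after 10 min at room temperature.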
Potency is the fitted concentration of half-maximal effect; tags give direction and shape of the fitted curve.

Structure (SMILES)	Potency	viability, % of control
CC(C)C[C@@H]1NC(=O)[C@@H](Cc2ccccc2)NC(=O)C(CCCCCC(=O)C2CO2)NC(=O)[C@@H]2CCCCN2C1=O (stereo not given in full)	active: 0.0126 µM	
OCc1ccccn1	inactive	
Cc1onc(-c2c(F)cccc2Cl)c1C(=O)N[C@@H]1C(=O)N2[C@@H]1SC(C)(C)[C@@H]2C(=O)O	active: 13 µM	
COC(=O)[C@H](O)[C@H]1C(C)(C)[C@H](OC(C)=O)[C@@]2(O)C(=O)[C@]1(C)C1CC[C@]3(C)C(CC(=O)O[C@H]3c3ccoc3)[C@]13O[C@@H]32 (stereo not given in full)	inconclusive [cytotoxic, partial curve, poor fit]	
C[C@]12CCC(=O)C=C1CC[C@@H]1[C@@H]2C(=O)C[C@@]2(C)[C@H]1CC[C@]2(O)C(=O)CO	inactive	
CCOC(=O)[C@H](CCc1ccccc1)N[C@@H](C)C(=O)N(CC(=O)O)C1Cc2ccccc2C1	inactive	
C/C=C/C=C/[C@@H]1O[C@](O)([C@H](CC)C(=O)NC/C=C/C=C(\C)[C@@H](OC)[C@@H](C)[C@@H]2O[C@H](/C=C/C=C/C=C(\C)C(=O)c3c(O)ccn(C)c3=O)[C@H](O)[C@@H]2O)[C@H](O)[C@H](O)C1(C)C		inactive: 85.3% [at 9.25 µM]
CC(=O)O[C@@]1(C)[C@@H]2CC(=C(C)C)C(=O)C[C@@]2(C)CC[C@H]1OC(=O)C1(C)OC1C (stereo not given in full)	inactive	
Cc1cc(-c2nc(C(=O)Nc3cn(C4CCOCC4)nc3C(N)=O)co2)ccn1	active: 0.146 µM	
CCCCCCCCCCCCCC[N+](C)(C)Cc1ccccc1	active: 3.35 µM	
CN1C(CSCC(F)(F)F)Nc2cc(Cl)c(S(N)(=O)=O)cc2S1(=O)=O (stereo not given)	inconclusive [cytotoxic, partial curve]	
C=CC(C)(O)CC/C=C(\C)C(=O)O[C@@H]1[C@@H](O)[C@H](OC(C)(C=C)CC/C=C(\C)C(=O)O)O[C@H](CO)[C@H]1OC(=O)/C(C)=C/CCC(C)(O)C=C (stereo not given in full)	inactive	
N#Cc1ccc(-c2ccc(NC(=O)Nc3ccc(-c4ccnc5nc[nH]c45)cc3)cc2)cc1	inconclusive [cytotoxic, partial curve]	
CNc1c2c(nn1C)CCCC2	inactive	
CC(NC(=O)CC(=O)O)C(=O)Nc1ccccc1C(N)=O (stereo not given)	inactive	
CC1(C)CC[C@]2(C(=O)O[C@@H]3O[C@H](CO[C@@H]4O[C@H](CO)[C@@H](O)[C@H](O)[C@H]4O)[C@@H](O)[C@H](O[C@@H]4O[C@H](CO)[C@@H](O)[C@H](O)[C@H]4O)[C@H]3O)CC[C@]3(C)C(=CCC4[C@@]5(C)CC[C@H](O[C@@H]6OC[C@@H](O)[C@H](O)[C@H]6O)[C@@](C)(C(=O)O)C5CC[C@]43C)[C@@H]2C1 (stereo not given in full)		inactive: 108% [at 9.25 µM]
O=C1NC(=O)C(c2ccccc2)(c2ccccc2)N1	inconclusive [cytotoxic, single point]	
CC1=C(/C=C/C(C)=C/C=C/C(C)=C/C=C/C=C(C)/C=C/C=C(C)/C=C/C2=C(C)CCCC2(C)C)C(C)(C)CCC1	inconclusive [cytotoxic, partial curve, poor fit]	
C[C@H]1[C@H](C)CC[C@]2(C(=O)O)CC[C@]3(C)C(=CC[C@@H]4[C@@]5(C)CC[C@H](O)C(C)(C)[C@@H]5CC[C@]43C)[C@H]12	active: 20.9 µM	
COc1ccc(/C=C/C(=O)O[C@@H]2[C@@H](O)[C@@H](O)[C@H](O[C@H]3[C@@H]4C=CO[C@@H](O[C@@H]5O[C@H](CO)[C@@H](O)[C@H](O)[C@H]5O)[C@@H]4[C@@]4(CO)O[C@@H]34)O[C@H]2C)cc1	inactive	

Structure (SMILES)	Potency	viability, % of control
CC(=O)OC1C(O)CC2(C)C(CCC3(C)C2CC=C2C4C5(CCC(CO[C@@H]6O[C@H](CO)[C@@H](O)[C@H](O)[C@H]6O)(OC5=O)C4(C)O)C(O)CC23C)C1(C)C (stereo not given in full)	inactive	
CC1CCC2(OC1)OC1CC3C4CCC5C[C@@H](O[C@@H]6O[C@H](CO[C@@H]7OC[C@@H](O)[C@H](O)[C@H]7O)[C@H](O)[C@H](O)[C@H]6O)CC[C@]5(C)C4CC[C@]3(C)C1C2C (stereo not given in full)	inconclusive [cytotoxic, single point]	
CC1(C)CC(NC(=O)C(=O)Nc2ccc(Cl)cc2)CC(C)(C)N1	inconclusive [cytotoxic, partial curve, poor fit]	
Cc1ccc(-c2c(-c3nn(C)c4ncnc(N5CC[C@H](N6CCCCC6)C5)c34)cnn2C)cc1	inactive	
C=C(C)C1CCC(C)C12CC(O)C1(C)OC1C2OC(=O)C(N)CCC(=O)O (stereo not given)	inactive	
COc1cccc2cc3c(c(O[C@@H]4O[C@H](CO[C@@H]5O[C@H](CO)[C@@H](O)[C@H](O)[C@H]5O)[C@@H](O)[C@H](O)[C@H]4O)c12)C(C)OC3=O (stereo not given in full)	inconclusive [cytotoxic, partial curve, poor fit]	
O=C(OCc1ccccc1)c1ccccc1	inactive	
CC(C)C1(O[C@@H]2O[C@H](CO)[C@@H](O)[C@H](O)[C@H]2O)CC=C(CO)CC1 (stereo not given in full)	inactive	
CC(=O)NC1CC(=O)C23C(=O)NC(Cc4c[nH]c5ccccc45)C2C(C)=C(C)C(O)C3/C=C/CC(C)/C=C(/C)C(O)C1O (stereo not given)	inactive	
C[C@@H]1CC[C@]2(C(=O)OC3OC(CO)C(O)C(O)C3O)CC[C@]3(C)C(=CCC4[C@@]5(C)CC[C@H](O)[C@](C)(C(=O)O)C5CC[C@]43C)C2[C@]1(C)O (stereo not given in full)	inactive	
OC[C@H]1O[C@@H](O[C@@H]2OC=C[C@H]3[C@H](O)[C@@H]4O[C@]4(CO)[C@@H]23)[C@H](O)[C@@H](O)[C@@H]1O	inactive	
CC1(C(=O)O)CCCC2(C)C3CCC4CC3(CCC12)CC4=O (stereo not given)	inconclusive [cytotoxic, partial curve, poor fit]	
CC(C)=CCC[C@@](C)(O)[C@H]1CC=C(C)CC1	inconclusive [rising, full curve, poor fit]	
C=C[C@H]1C(O[C@@H]2O[C@H](CO)[C@@H](O)[C@H](O)[C@H]2O)OC=C2C(=O)N3CCc4c([nH]c5ccccc45)C3CC21 (stereo not given in full)	inactive	
O=C1Nc2ccc(Cl)cc2[C@@](C#CC2CC2)(C(F)(F)F)O1	active: 13.2 µM and active: 5.8 µM	
O=C1Cc2cc(Cl)ccc2N1	inconclusive [cytotoxic, single point]	
CC(C)(Cc1ccccc1)NCC(O)c1ccc(O)c(NS(C)(=O)=O)c1 (stereo not given)	inactive	
CNc1nc(-c2ccc3c(N)n[nH]c3c2)cc(N2CC(C(=O)NC3CCCCC3)CCC2C)n1 (stereo not given)	active: 4.61 µM	
CC1C/C=C/C=C\CCCCC(O)C/C=C/C(=O)O1 (stereo not given)	inconclusive [cytotoxic, full curve, poor fit]	
CC(=O)O[C@@H]1[C@H]2[C@@H](OC(=O)c3ccccc3)[C@@H](C)C[C@]2(O)[C@H](OC(C)=O)[C@@]2(C)[C@@H]3CC(C)(C)C(=O)[C@]3(OC(C)=O)C[C@@]12C	inconclusive [cytotoxic, single point]	
